The results in this text go back to PMC6919601, “Identification of Plasmodium dipeptidyl aminopeptidase allosteric inhibitors by high throughput screening” (PLoS ONE, 2019).

Screen size: about 110,000 compounds; about 230 (0.21%) showed an effect of 50% or more. The list shows a part of the results.
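Also: 30 min substrate incubation versus DMSO and 10 µM JCP410 controls.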

The target in the assay is DPAP1 (Plasmodium falciparum, UniProt Q8IIJ9). Kind of assay: primary screen, percent inhibition; read by cleavage of a fluorogenic dipeptide substrate; higher = more effect of the substance. More on the design: species or system P. falciparum D10 trophozoite lysates; single well.
DPAP1, sequence (Q8IIJ9 whole entry, looked up): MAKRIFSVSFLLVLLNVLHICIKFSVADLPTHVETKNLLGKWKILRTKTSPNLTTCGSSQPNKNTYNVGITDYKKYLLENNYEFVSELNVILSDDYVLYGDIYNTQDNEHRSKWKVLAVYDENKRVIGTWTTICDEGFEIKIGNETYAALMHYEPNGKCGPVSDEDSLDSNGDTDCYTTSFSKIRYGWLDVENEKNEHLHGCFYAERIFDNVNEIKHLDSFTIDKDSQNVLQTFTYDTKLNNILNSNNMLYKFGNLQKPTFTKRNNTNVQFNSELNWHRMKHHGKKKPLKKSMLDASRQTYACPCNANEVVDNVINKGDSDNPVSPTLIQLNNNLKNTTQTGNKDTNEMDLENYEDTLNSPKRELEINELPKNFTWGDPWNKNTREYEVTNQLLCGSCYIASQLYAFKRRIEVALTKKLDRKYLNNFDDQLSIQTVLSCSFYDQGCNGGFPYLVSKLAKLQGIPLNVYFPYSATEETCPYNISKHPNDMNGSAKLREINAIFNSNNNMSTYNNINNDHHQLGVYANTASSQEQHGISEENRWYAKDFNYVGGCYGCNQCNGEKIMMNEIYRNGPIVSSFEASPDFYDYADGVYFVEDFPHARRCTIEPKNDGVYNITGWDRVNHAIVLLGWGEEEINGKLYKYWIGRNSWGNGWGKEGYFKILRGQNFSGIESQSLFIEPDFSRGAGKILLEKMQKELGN
For the molecule `O=C(O)C1CC=CCC1C(=O)Nc1ccccc1C(=O)N1CCN(c2ccc(F)cc2)CC1` (centres unmarked), the “% Inhibition @ 10 uM” value was -2.67%.
The same measure for `CCOC(=O)c1cc2c(=O)n3ccccc3nc2n(CCOC)/c1=N/C(=O)c1cccc2ccccc12`: -3.78%.
Consider `CCCOc1ccc(C(=O)Nc2cccc(C(=O)Nc3nccs3)c2)cc1`, for which the “% Inhibition @ 10 uM” value is reported as 2.42%.
As for `OC12CCCCC1C(c1ccc3ccccc3c1)NCC2` (centres unmarked), the figure is 1.54%; as for `O=C(Nc1ccc(Cl)c(Cl)c1)C(=O)NC1CCCCC1`, 4.54%.
As for `CC(/N=C/c1c(O)oc2ccccc2c1=O)C(=O)O` (centres unmarked), the figure is 1.74%.
As for `CN1C(=O)/C(=C/c2ccc(C(=O)O)cc2)S/C1=N/c1ccc(Cl)cc1`, the figure is 1.31%; as for `COCCCNC(=O)c1cc2c(=O)n3ccccc3nc2n(Cc2ccco2)c1=N`, 1.97%; as for `CC(=O)c1cc(F)c(N2CCN(C(C)=O)CC2)cc1C`, 3.65%.
Regarding `O=C(NC1CCCC1)c1nnc(-c2ccc(CN3CCc4ccccc4C3)cc2)o1`, the “% Inhibition @ 10 uM” value is given as 11.2%.
The same measure for `CCOC(=O)c1cc(-c2ccc(OC)c(S(=O)(=O)NCc3cc(C)ccc3C)c2)on1`: -0.48%; for `COc1ccc(CNCc2cccs2)cc1OC`: -2.76%.
Turning to `COc1ccc(-n2cnc3nc(C)c(C(C)=O)c(-c4ccccc4)c32)cc1`, the “% Inhibition @ 10 uM” value is reported as -4.93%.
As for `CCCCNC(=O)C(=O)NCCN1CCOCC1`, the figure is -1.33%; as for `Cc1ccc2c(c1)c1c3n2CCN(CC#N)C3CCC1` (centres unmarked), -0.415%.
Regarding `COc1ccccc1Nc1nc(-c2ccc(F)cc2)cs1`, the “% Inhibition @ 10 uM” value is given as 1.13%.
As for `CCCNC(=O)c1cc2c(=O)n3cccc(C)c3nc2n1C`, the “% Inhibition @ 10 uM” value amounted to 0.189%.
The same measure for `O=C(NC(c1ccccc1)c1c(O)ccc2ccccc12)c1ccccc1Br` (centres unmarked): -0.152%; for `CC1(C)CC2=Nc3ccccc3NC(c3ccc(Br)cc3)C2=C(O)C1` (centres unmarked): 3.83%; for `CCn1cc(C2=NOC(C(=O)N3CCN(C(=O)c4ccco4)CC3)C2)c(C)n1` (centres unmarked): -1.37%.
`CN(C)S(=O)(=O)n1cc(/C=C/c2nc(N)nc(-c3ccccc3O)n2)c2ccccc21`: the “% Inhibition @ 10 uM” value was 3.36%.
In the case of `O=C(NCCCc1ccccc1)C1CCN(c2ncnc3c2sc2cccc(F)c23)CC1`, the “% Inhibition @ 10 uM” value is 1.03%.
With `CCOC(=O)c1c(-c2ccccc2)csc1/N=C/c1ccc(O)c(OC)c1`, the “% Inhibition @ 10 uM” value stood at 0.0719%.
The same measure for `CC1Cc2ccccc2N1S(=O)(=O)c1cnc(Cl)c(Br)c1` (centres unmarked): -1.51%.
Regarding `COc1ccc(-c2noc(C(=O)NCc3cc(C)nc4ccccc34)n2)cc1OC`, the “% Inhibition @ 10 uM” value worked out at 6.31%.
The same measure for `COc1ccc(C2=NN(S(C)(=O)=O)C(c3cc4cc(OC)c(OC)cc4nc3Cl)C2)cc1` (centres unmarked): 2.76%; for `CCN(CC)CCN1C(=O)C(O)=C(C(=O)c2ccc(Cl)cc2)C1c1ccc(OC)cc1` (centres unmarked): 1.58%; for `O=c1c2c3c(sc2n2c(S)nnc2n1-c1ccccc1)CCC3`: -2.54%.
As for `COc1ccccc1CNc1nc2nc(C)cc(C)n2n1`, the figure is 0.795%; as for `CC(NCCO)C(C)C(c1ccccc1)c1ccccc1` (centres unmarked), -2.36%.
For `Cc1ccnc2nc(NC(=O)C(C)Oc3ccccc3)nn12` (centres unmarked), the “% Inhibition @ 10 uM” value was -1.31%.
Regarding `CC(=O)c1ccc(NC(=O)c2c(-c3ccccc3Cl)noc2C)cc1`, the “% Inhibition @ 10 uM” value stood at 0.823%.
As for `CCOc1ccc2nc3cc(N)ccc3c(N)c2c1`, the figure is 3%; as for `COc1cccc(C(=O)Nc2nc3ccccc3[nH]2)c1OC`, 4.44%.
As for `CS(=O)(=O)CCC(C(=O)N1CCc2ccccc2C1)N1Cc2ccccc2C1=O` (centres unmarked), the figure is -3.53%.
As for `O=C(Cc1coc(-c2ccc(F)cc2)n1)NCc1ccccc1`, the figure is -5.81%; as for `CCCCCn1cc(C(=O)c2ccc(C)cc2)c(=O)c2ccc(C)nc21`, -1.01%.
With `N#CCCN(CCc1ccccc1)S(=O)(=O)c1cccc2nsnc12`, the “% Inhibition @ 10 uM” value was determined as 3.25%.
`O=C(NCCc1ccc(Cl)cc1)C1CCCN(S(=O)(=O)c2cccc3nonc23)C1` (centres unmarked): the “% Inhibition @ 10 uM” value is listed as -7.27%.
As to `CCc1ccc2c(c1)C1CC(C)(O2)N(CC)C(=S)N1` (centres unmarked), the “% Inhibition @ 10 uM” value is reported as -4.94%.
As for `Cc1ccc(C(=O)NCc2ccccc2)c(O)n1`, the figure is -0.261%; as for `O=[N+]([O-])c1ccc(-c2cn3cc(Br)ccc3n2)cc1`, -6.18%.
For the molecule `CCCCC1CCC(C(=O)NCC(c2ccco2)N2CCCC2)CC1` (centres unmarked), the “% Inhibition @ 10 uM” value amounted to 0.401%.
As for `N=C1S/C(=C\c2cn(-c3ccccc3)nc2-c2cccs2)C(=O)N1c1nccs1`, the figure is -1.24%; as for `O=C1N=C(Nc2ccccc2Cl)S/C1=C/c1cccnc1`, -5.07%.
The same measure for `Cc1cccc(NC(=O)C2CCC(CNc3c(N4CCC(C)CC4)c(=O)c3=O)CC2)n1` (centres unmarked): -3.96%.
As for `Cc1ccc2nc(O)c3cc(C(=O)O)sc3c2c1`, the figure is -0.631%; as for `CC(C)c1ccc(CNC(=O)c2ccc(C(C)(C)C)cc2)cc1`, -0.446%.
Consider `CCC(C(=O)NC(C)CCc1ccco1)n1nc(C)n2c(cc3occc32)c1=O` (centres unmarked), for which the “% Inhibition @ 10 uM” value is reported as -7.54%.
The same measure for `CCCOC(=O)Nc1nc(-c2ccc(C)cc2)c(C)s1`: 2.38%; for `N#CCNC(=O)C(Cc1ccc(Br)cc1)NC(=O)OCc1ccccc1` (centres unmarked): -0.413%.
With `Cc1nc2nc(CCc3ccccc3)nn2c(C)c1Cl`, the “% Inhibition @ 10 uM” value was found to be 2.62%.
As for `COc1ccc(/C=C2/C=C(c3ccccc3)OC2=O)cc1OC`, the figure is 1.25%.
As for `Cc1ccc(Sc2ccncc2S(=O)(=O)NC(=O)NC(C)(C)C)cc1`, the figure is 3.8%.
With `Cc1ccc2c(c1)-c1onc(C(=O)NCCOC34CC5CC(CC(C5)C3)C4)c1CO2`, the “% Inhibition @ 10 uM” value is recorded as 1.42%.
As for `COc1cc(CN(CCO)Cc2ccccc2)c([N+](=O)[O-])cc1OC`, the figure is 2.7%.
Regarding `CCOc1ccc2nc(N(CCN(C)C)C(=O)CCS(=O)(=O)c3ccccc3)sc2c1`, the “% Inhibition @ 10 uM” value is on record as -7.35%.
In the case of `CC1(O)N(CCc2ccccc2)C(=O)OC12CCCCC2` (centres unmarked), the “% Inhibition @ 10 uM” value is given as 0.726%.
With `CC(C)(O)C#Cc1ccc(C#CC(C)(C)O)s1`, the “% Inhibition @ 10 uM” value was -6.33%.
As for `COc1ccccc1CNC(=O)Cn1ncc2c(=O)oc3ccccc3c21`, the figure is 0.708%.
As for `CCN(CC)C(=O)C1CCCN(Cc2ccco2)C1` (centres unmarked), the figure is -0.0404%; as for `Cc1ccc(O)c(CCc2ccccc2)n1`, 6.24%.
For the molecule `COc1ccc2c(c1)Cc1sc(NC(=O)c3ccc(C)cc3)nc1-2`, the “% Inhibition @ 10 uM” value was found to be 7.85%.
As for `CCc1onc2cc(C(=O)c3ccccc3)ccc12`, the figure is -6.11%; as for `O=C(CN1Cc2ccccc2C1=O)N1CCC2(CC1)OCCO2`, 1.6%.
